Measured values taken from paper PMC8683478.
These are yes or no findings as the source states them, for the method shown. Binding seen in cells or lysates may run through a third protein. Some results given as binding are weak or reduced against the parent protein; the word gives no strength. For some assays here: Where a sequence is shown, tags or fusion partners need not be part of it.

Protein sequences, listed by entry. Tags and fused reporters are not part of them. Lines headed by an entry give the natural chain unless they say otherwise; changes in a name come on top. Chains listed by the source or under a name are the forms on record and can include a tag or linker.
UniProt P19474: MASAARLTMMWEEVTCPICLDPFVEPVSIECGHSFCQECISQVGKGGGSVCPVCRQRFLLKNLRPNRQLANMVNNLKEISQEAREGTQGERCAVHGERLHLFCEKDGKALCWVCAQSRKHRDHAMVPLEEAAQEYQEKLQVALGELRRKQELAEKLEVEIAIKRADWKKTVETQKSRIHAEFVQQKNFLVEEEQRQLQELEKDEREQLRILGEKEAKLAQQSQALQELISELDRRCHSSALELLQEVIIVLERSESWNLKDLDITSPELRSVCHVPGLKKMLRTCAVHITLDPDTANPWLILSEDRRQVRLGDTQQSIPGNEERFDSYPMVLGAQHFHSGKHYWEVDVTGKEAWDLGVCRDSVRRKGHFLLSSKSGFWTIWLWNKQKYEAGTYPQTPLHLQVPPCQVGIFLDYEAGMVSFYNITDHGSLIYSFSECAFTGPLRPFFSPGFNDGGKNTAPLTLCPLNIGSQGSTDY
HA-TRIM21Δ287-334 (P19474, form named): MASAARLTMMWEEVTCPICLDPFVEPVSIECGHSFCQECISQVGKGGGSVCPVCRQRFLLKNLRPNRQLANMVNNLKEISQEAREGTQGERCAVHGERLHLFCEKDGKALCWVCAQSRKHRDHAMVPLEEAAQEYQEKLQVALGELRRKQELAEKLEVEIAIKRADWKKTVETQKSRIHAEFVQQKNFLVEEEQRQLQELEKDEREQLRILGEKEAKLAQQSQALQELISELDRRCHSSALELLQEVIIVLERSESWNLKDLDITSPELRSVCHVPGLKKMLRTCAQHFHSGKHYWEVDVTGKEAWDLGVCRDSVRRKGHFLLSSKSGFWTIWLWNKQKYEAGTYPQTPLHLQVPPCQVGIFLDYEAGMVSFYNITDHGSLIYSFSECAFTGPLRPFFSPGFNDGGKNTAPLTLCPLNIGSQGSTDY

Tests used:
His-Flag-RPRD1A = biological target: T1, His-Flag-RPRD1A (UniProt Q96P16); test: co-IP; His-Flag-RPRD1A or His-Flag-p62 expressed with HA-tagged TRIM21 full-length or truncation mutants in HEK293T cells for 48 h; lysates precipitated with His-tag antibody
T1 sequence: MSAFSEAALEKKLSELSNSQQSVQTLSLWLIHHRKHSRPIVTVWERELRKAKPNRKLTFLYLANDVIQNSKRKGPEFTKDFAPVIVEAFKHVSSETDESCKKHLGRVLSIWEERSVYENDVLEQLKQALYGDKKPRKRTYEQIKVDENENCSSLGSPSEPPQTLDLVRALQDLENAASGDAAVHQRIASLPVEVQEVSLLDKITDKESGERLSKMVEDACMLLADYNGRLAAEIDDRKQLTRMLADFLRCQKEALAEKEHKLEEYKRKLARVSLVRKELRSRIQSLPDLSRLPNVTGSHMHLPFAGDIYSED

[1] = biological target: T2, p15INK4b-related sequence/regulation of nuclear pre-mRNA domain-containing protein 1A (RPRD1A) (human (endogenous in MHCCLM3)) (UniProt Q96P16); test: co-IP; endogenous proteins in MHCCLM3 lysates (RIPA buffer); 2 ug antibody (RPRD1A, TRIM21 or p62) for 8 h at 4 C, protein A/G Plus-Agarose for 4 h, western blotting; TRIM21 with p62 also under RPRD1A knockdown or overexpression (Fig. 5F, G)
T2 sequence: T1 sequence

Substance | binding (His-Flag-RPRD1A) | binding [1]
HA-TRIM21Δ334-476 (from UniProt P19474 1-333) (domain or fragment) | binds | 
HA-TRIM21Δ287-334 (from UniProt P19474 1-475) (domain or fragment) | binds | 
TRIM21 (from UniProt P19474 1-475) |  | binds
HA-TRIM21Δ252-476 (from UniProt P19474 1-251) (domain or fragment) | no binding | 
HA-tagged TRIM21 full-length (from UniProt P19474 1-475) | binds | 
